{
  "source": "ChEMBL document CHEMBL1157539",
  "about": "“Thousands of chemical starting points for antimalarial lead identification” (Nature, 2010)",
  "note": "Whole data set: some 13,000 compounds, median “IFI” near 4, cut for the highest 2% near 17. The list shows a part of the results.",
  "data": [
    {"assay": "GSK_TCMDC: Inhibition Frequency Index (IFI). The number of non-kinase HTS assays where a compound showed > 50 % inhibition, expressed as a percentage of the number of such assays in which the compound was tested (-0 is zero)", "assay_type": "functional", "units": {"IFI": "%"}, "values": [
      {"smiles": "NC(=O)c1ccccc1OCC(=O)Nc1cccc(-c2ccc(-c3nc4cc(C(F)(F)F)ccc4[nH]3)cc2)c1", "IFI": 1.75},
      {"smiles": "COc1ccccc1CNC(=O)c1cc(OC)c(OC)cc1NC(=O)c1cccs1", "IFI": 1.92},
      {"smiles": "COCCNCc1ccc(-c2cccc(CNC3CCN(Cc4ccccc4)CC3)c2)cc1", "IFI": 7.52},
      {"smiles": "NS(=O)(=O)c1ccccc1Nc1nc(Nc2ccc(N3CCOCC3)cc2)nc2c1CCC2", "IFI": 3.23},
      {"smiles": "N=C(NCCCCCCNC(=N)NC(=N)c1ccc(Cl)cc1)NC(=N)c1ccc(Cl)cc1", "IFI": 4.65},
      {"smiles": "CCOc1cc(C(=O)NC2CCN(Cc3ccccc3)CC2)ccc1-c1nc2cc(Cl)c(Cl)cc2[nH]1", "IFI": 0.74},
      {"smiles": "COc1ccc2c(=NN=Cc3c(OC)ccc4ccccc34)cc(C)[nH]c2c1", "IFI": 1.48},
      {"smiles": "O=C(Nc1ccccc1O)c1ccc(Oc2cccc(C(=O)Nc3ccccc3O)c2)cc1", "IFI": 13.9},
      {"smiles": "CCOc1ccc(C(=O)Nc2ccc(-c3nc4ccccc4[nH]3)cc2)cc1[N+](=O)[O-]", "IFI": 1.47},
      {"smiles": "Cc1cc(-c2cccc(CNC3CCN(C)CC3)c2)ccc1S(=O)(=O)NCCc1ccccn1", "IFI": 3.81},
      {"smiles": "CC(=O)NCC(=O)NC1=NC(=N)N(OCc2ccc3ccccc3c2)C(C)(C)N1", "IFI": 3.68},
      {"smiles": "Cc1cccc2nc(-c3ccc(-c4cccc(CNCc5ccc(CN)cc5)c4)s3)[nH]c12", "IFI": 11.8},
      {"smiles": "Cc1cc(C)cc(-n2c(C)cc(/C=C3\\SC(=Nc4ccc(Cl)cc4)NC3=O)c2C)c1", "IFI": 1.45},
      {"smiles": "Cc1cc2c(NC(=O)NC3CCN(Cc4ccc(Cl)c(Cl)c4)CC3)cccc2cn1", "IFI": 3.62},
      {"smiles": "COc1cccc(-c2cnc(-c3ccncc3)nc2C2CCN(Cc3ccc(NC(C)=O)cc3)CC2)c1", "IFI": 0},
      {"smiles": "Cc1ccc(Cn2nc(N3CCNCC3)ccc2=O)cc1NC(=O)Nc1ccc(-c2ccccc2)cc1", "IFI": 4.11},
      {"smiles": "Cc1ccc(NC(=O)c2ccc(NCCCN(C)Cc3ccccc3)c([N+](=O)[O-])c2)cc1F", "IFI": 3.73},
      {"smiles": "O=C(Nc1cccc(C(F)(F)F)c1)c1cccc2nc(C(F)(F)F)[nH]c12", "IFI": 16.4},
      {"smiles": "COc1ccc(Cl)c(CC2c3cc(O)c(Cl)cc3CCN2C)c1", "note": "(centres undefined)", "IFI": 2.13},
      {"smiles": "O=c1cc(NCCCNCc2cc3ccccc3s2)[nH]c2ccccc12", "IFI": 2.19},
      {"smiles": "CCCC1(NC[C@@H](O)[C@H](Cc2ccccc2)NC(=O)c2cc(NCC)cc(N3CCCCS3(=O)=O)c2)CCC1", "IFI": 0.74},
      {"smiles": "CCOC(=O)c1cc(C(=O)NCCCCN2CCC(c3cn(C)c4ccccc34)CC2)ccc1-c1ccc(C(F)(F)F)cc1", "IFI": 5.31},
      {"smiles": "Cc1ccc(CN2CCCN(Cc3cccc(NC(=O)c4ccc(Cl)c(Cl)c4)c3)CC2)cc1", "IFI": 6.58},
      {"smiles": "CCCCCN1CCC(CNS(=O)(=O)c2ccc(C(=O)Nc3cccc(C(F)(F)F)c3)cc2)CC1", "IFI": 7.22},
      {"smiles": "O=C(NC(Cc1ccccc1)C(=O)O)c1cc(=O)c2ccccc2o1", "note": "(centres undefined)", "IFI": 2.21},
      {"smiles": "CCOC(=O)c1ccc(COc2ccc(C)nc2)cc1", "IFI": 0.74},
      {"smiles": "CC(C)c1ccc(OCCCON2C(=N)N=C(N)NC2(C)C)cc1", "IFI": 6.34},
      {"smiles": "COC(=O)c1ccc2[nH]cc(C3CCN(CCC4CCN(C(=O)/C=C/c5ccc(Cl)c(Cl)c5)CC4)CC3)c2c1", "IFI": 4.2},
      {"smiles": "CC(c1cccc(Nc2nccc(-c3c(-c4cccc(NC(=O)c5c(F)cccc5F)c4)nn4ncccc34)n2)c1)S(C)(=O)=O", "note": "(centres undefined)", "IFI": 7.75},
      {"smiles": "CN(C)C(CNC(=O)c1cc(-c2ccncc2)c(-c2ccc(NC(=O)Nc3cccc(F)c3)cc2)o1)c1ccccc1", "note": "(centres undefined)", "IFI": 8.22},
      {"smiles": "CS(=O)(=O)c1ccc(CNCc2cccc(-c3cccc(-c4nc5cc(F)ccc5[nH]4)c3)c2)cc1", "IFI": 2.83},
      {"smiles": "CCC(=Cc1cccc([N+](=O)[O-])c1)C(=O)NCC1CCN(c2nc3cc(OC)c(OC)cc3c(=N)[nH]2)CC1", "IFI": 4.39},
      {"smiles": "CN(C)Cc1ccc(O)c(-c2ccc(C(C)(C)C)cc2)n1", "IFI": -0},
      {"smiles": "CC(C)CN(c1nc(C(=O)NNC(=O)[C@H](CC2CC2)NC(=O)c2cc3cc(OCCN4CCCCC4)ccc3o2)cs1)C1CC1", "IFI": 4.38},
      {"smiles": "Clc1ccc(OCCC2CCN(CCCCCCN3CCCCC3)CC2)cc1Cl", "IFI": 9.87},
      {"smiles": "Cc1cc(C2CCN(CCCCNC(=O)c3ccc(-c4ccc(C(F)(F)F)cc4)cc3)CC2)c(C)cc1OCCO", "IFI": 4.59},
      {"smiles": "COc1cc2c(cc1OC)C(C(=O)Nc1cc(OC)c(OC)c(OC)c1)C(c1ccc(SC)cc1)N(C)C2=O", "note": "(centres undefined)", "IFI": -0},
      {"smiles": "CN1CCCC(OC(=O)c2ccccc2)C1", "note": "(centres undefined)", "IFI": 0},
      {"smiles": "Fc1ccc2[nH]c(-c3ccc(-c4ccc(CNCC5CCCO5)cc4)cc3)nc2c1", "note": "(centres undefined)", "IFI": 7.92},
      {"smiles": "CCN(CC)CCCNC(=O)/C(=C/C=C/c1cc2cc(Cl)c(Cl)cc2[nH]1)OC", "IFI": 8.46},
      {"smiles": "COc1ccc2nccc(N3CCC(NCCNS(=O)(=O)c4ccc5c(c4)NC(=O)CS5)C3)c2n1", "note": "(centres undefined)", "IFI": 1.53},
      {"smiles": "COc1cc(C)nc2ccc(NC(=O)Nc3ccc([N+](=O)[O-])cc3C)cc12", "IFI": 3.01},
      {"smiles": "Cc1ccc2[nH]c(C)cc(=NN=CC=Cc3ccccc3)c2c1", "IFI": -0},
      {"smiles": "CC(C)(CC1CCCCC1)NC(=O)[C@H](CC1CCCCC1)Nc1ccc(C#N)c2ccccc12", "IFI": 0.97}
    ]}
  ]
}
